# Results published in the supplement of paper PMC10037445.
# ± gives the standard deviation of the averaged measurements. Whole data set: some 2,900 compounds, median “IRF Lucia reporter activity, fold change vs agonist alone” near 0.9, cut for the highest 2% near 2.8. The list shows a part of the results.
# Tests used:
# RAW-Dual [1] = test: IRF Lucia reporter activity, fold change vs agonist alone; cytotoxicity flag (confluency mask): not cytotoxic; higher = enhanced IRF activity
# Procedure, shortened: (§1)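 RAW-Dual macrophages were seeded in DMEM at 50,000 cells/well in 384-well plates, given 50 nL of library stock by pin tool, and given a PRR agonist 1 h later. Plates were held at 37 °C, 5% CO2 for 20 hours, after which supernatant was read for IRF by QuantiLuc luminescence and for NF-κB by QuantiBlue absorbance at 620 nm. Reporter activity is expressed as fold change over wells that received agonist alone. A well was called cytotoxic when IncuCyte confluency fell below 70% of agonist controls in both mask sets.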
# RAW-Dual [2] = test: IRF Lucia reporter activity, fold change vs agonist alone; higher = enhanced IRF activity; conditions: library stock concentration (final ~1000-fold dilution): 10 mM, agonist: MPLA (TLR4) […]
# Procedure, shortened: as §1
# RAW-Dual [3] = test: IRF Lucia reporter activity, fold change vs agonist alone; cytotoxicity flag (confluency mask): cytotoxic (confluency <70% of control); higher = enhanced IRF activity
# Procedure, shortened: as §1
# [4] = agonist: 3'3'-cGAMP (STING) 10 ug/mL
# [5] = cytotoxicity flag (confluency mask): not cytotoxic
smiles,measurement,setting,value
CC1OC(OC2C(=O)c3c(O)cc(O)cc3OC2c2ccc(O)cc2)C(O)C(O)C1O (centres undefined) (library stock concentration (final ~1000-fold dilution): 10 mM),IRF Lucia reporter activity,RAW-Dual [1]; [4],1.01 ± 0.044
same,IRF Lucia reporter activity,RAW-Dual [1]; agonist: LPS (TLR4) 0.1 ug/mL,0.948 ± 0.27
CC1(C)OCC(COC(=O)CCc2ccc(OCC(O)CNCCNC(=O)N3CCOCC3)cc2)O1.Cl (centres undefined) (library stock concentration (final ~1000-fold dilution): 10 mM),IRF Lucia reporter activity,RAW-Dual [1]; [4],1.05
same,IRF Lucia reporter activity,RAW-Dual [1]; agonist: LPS (TLR4) 0.1 ug/mL,0.99
CC1(C)OCC(COC(=O)CCc2ccc(OCC(O)CNCCNC(=O)N3CCOCC3)cc2)O1.Cl (centres undefined),IRF Lucia reporter activity,RAW-Dual [2]; [5],1.1
COc1ccc2c(c1)C(C(=O)N(Cc1ccc(N(C)C)cc1)c1ccc(C(C)C)cc1)CCC2 (centres undefined) (library stock concentration (final ~1000-fold dilution): 10 mM),IRF Lucia reporter activity,RAW-Dual [1]; [4],1.21
same,IRF Lucia reporter activity,RAW-Dual [1]; agonist: LPS (TLR4) 0.1 ug/mL,0.932
CC(C)=CCC(O)C1=CC(=O)c2c(O)ccc(O)c2C1=O (centres undefined) (library stock concentration (final ~1000-fold dilution): 10 mM),IRF Lucia reporter activity,RAW-Dual [1]; [4],0.00786
same,IRF Lucia reporter activity,RAW-Dual [1]; agonist: LPS (TLR4) 0.1 ug/mL,0.0123
CC(C)Cc1ccc(C(C)C(=O)O)cc1 (centres undefined) (library stock concentration (final ~1000-fold dilution): 10 mM),IRF Lucia reporter activity,RAW-Dual [1]; [4],1.12
same,IRF Lucia reporter activity,RAW-Dual [1]; agonist: LPS (TLR4) 0.1 ug/mL,1.02
CC(C)Cc1ccc(C(C)C(=O)O)cc1 (centres undefined),IRF Lucia reporter activity,RAW-Dual [2]; [5],1.06
CN1CC2c3ccccc3Oc3ccc(Cl)cc3C2C1.O=C(O)/C=C\C(=O)O (centres undefined),IRF Lucia reporter activity,RAW-Dual [2]; cytotoxicity flag (confluency mask): cytotoxic (confluency <70% of control),1.95
CN1CC2c3ccccc3Oc3ccc(Cl)cc3C2C1.O=C(O)/C=C\C(=O)O (centres undefined) (library stock concentration (final ~1000-fold dilution): 10 mM),IRF Lucia reporter activity,RAW-Dual [3]; [4],0.746
same,IRF Lucia reporter activity,RAW-Dual [3]; agonist: LPS (TLR4) 0.1 ug/mL,0.716
O=C(/C=C/N1CC2CC1CN2c1ccccn1)c1ccccc1O (centres undefined) (library stock concentration (final ~1000-fold dilution): 10 mM),IRF Lucia reporter activity,RAW-Dual [1]; [4],1.08
same,IRF Lucia reporter activity,RAW-Dual [1]; agonist: LPS (TLR4) 0.1 ug/mL,0.97
O=C(/C=C/N1CC2CC1CN2c1ccccn1)c1ccccc1O (centres undefined),IRF Lucia reporter activity,RAW-Dual [2]; [5],0.948
COc1ccnc(CS(=O)c2nc3ccc(OC(F)F)cc3[nH]2)c1OC (centres undefined) (library stock concentration (final ~1000-fold dilution): 10 mM),IRF Lucia reporter activity,RAW-Dual [1]; [4],1.02
same,IRF Lucia reporter activity,RAW-Dual [1]; agonist: LPS (TLR4) 0.1 ug/mL,1.01
COc1ccnc(CS(=O)c2nc3ccc(OC(F)F)cc3[nH]2)c1OC (centres undefined),IRF Lucia reporter activity,RAW-Dual [2]; [5],1.02
CN1CCC(=C2c3ccccc3CCn3c(C=O)cnc32)CC1,IRF Lucia reporter activity,RAW-Dual [2]; [5],0.987
CN1CCC(=C2c3ccccc3CCn3c(C=O)cnc32)CC1 (library stock concentration (final ~1000-fold dilution): 10 mM),IRF Lucia reporter activity,RAW-Dual [1]; [4],0.969
same,IRF Lucia reporter activity,RAW-Dual [1]; agonist: LPS (TLR4) 0.1 ug/mL,1.14
Cc1cc(F)c(C(=O)Nc2cccc(-c3nncn3C(C)C)n2)cc1-n1cnc(C2CC2)c1 (library stock concentration (final ~1000-fold dilution): 10 mM),IRF Lucia reporter activity,RAW-Dual [1]; [4],0.222
same,IRF Lucia reporter activity,RAW-Dual [1]; agonist: LPS (TLR4) 0.1 ug/mL,0.688
O=C(Nc1ccc(CN2CCOCC2)cc1)c1ccc(-c2cccc(Cl)c2)o1 (library stock concentration (final ~1000-fold dilution): 10 mM),IRF Lucia reporter activity,RAW-Dual [1]; [4],0.832
same,IRF Lucia reporter activity,RAW-Dual [1]; agonist: LPS (TLR4) 0.1 ug/mL,0.499
O=C(Nc1ccc(CN2CCOCC2)cc1)c1ccc(-c2cccc(Cl)c2)o1,IRF Lucia reporter activity,RAW-Dual [2]; [5],1.1
